Test results taken from the RNAGym collection of RNA variant scans (doi:10.1073/pnas.2313332121).
Variants at the floor of the assay are shown more often than the library holds them.

B1: TPR 5TU (parent)
chain: GGAUCUUCUCGAUCUAACAAAAAAGACAAAUCUGCCACAAAGCUUGAGAGCAUCUUCGGAUGCAGAGGCGGCAGCCUUCGGUGGCGCGAUAGCGCCAACGUUCUCAACUAUGACACGCAAAACGCGUGCUCCGUUGAAUGGAGUUUAUCAUG

Variants of: B1
Experiment: polymerase ribozyme fitness, log enrichment relative to wild type (log ratio); higher = more active; in vitro selection for triplet polymerase activity
Summary of the method: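 Mutant libraries of both subunits of a heterodimeric triplet polymerase ribozyme were PCR-built, transcribed, and selected once in triplicate, with frozen incubation at −7 °C and capture of gel-excised extended constructs on streptavidin beads before RT-PCR. Illumina sequencing of input and output libraries was filtered to genotypes with ≥10 input reads and ≥1 read per output. Fitness is the logarithm of genotype enrichment over wild-type enrichment, using inverse-variance-weighted replicate averages. The logarithm is base 2.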
With GGAUCUUCUCGAUCUAACAAAAAAGACAAAUCUGCCACAAAGCUUGAGAGCAUCUUCGGAUGCAGAGGCGGCAGCCUUCGGUGGUGCGAUAGCGCCAACGUUCUCAACUAUGACACACAAAACGCGUGCUCCGUUGAAUGCAGUUUAUCAUC [C85U G117A G141C G152C] the “polymerase ribozyme fitness (log ratio)” value was at most -4.2. For GGAUCUUCUCGAUCUAACAAAAAAGACAAAUCUGCCACAAAGCUUGAGAGCAUCUUCGGAUGCAGAGGCGGCAGCCUUCGGUGGCACGAUAGCGCCAACGUUCUCAACUAUGCCACGCAAAACGCGUGCUCCGUUGAAUGGAGUUUAUCAUG [G86A A113C], the “polymerase ribozyme fitness (log ratio)” value was -3.53. In the case of GGAUCUUCUCGAUCUAACAAAAAAGACAAAUCUGCCACAAAGCUUGAGAGCAUCUUCGGAUGCAGAGGCGGCAGCCUUCGGUGGUGCGAUAGCGCCAACGUUCUCAACUAUGACACGCAAAACGCGUGCUCCGCUGAAUGGAGAUUAUAAUG [C85U U134C U144A C149A], the “polymerase ribozyme fitness (log ratio)” value is reported as -4.1. With GGAUCUUCUCGAUCUAACAAAAAAGACAAAUCUGCCACAAAGCUUGAGAGCAUCUUCGGAUGCAGAGGCGGCAGCCUUCGGUGGUGCGAUAGCGCCAACGUUCUCAACUAUGACACGCAAAACGCGUGCUCCGUUGAAUGGAGUGUAUCAUG [C85U U145G] the “polymerase ribozyme fitness (log ratio)” value was -2. For GGAUCUUCUCGAUCUAACAAAAAAGACAAAUCUGCCACAAAGCUUGAGAGCAUCUUCGGAUGCAGAGGCGGCAGCCUUCGGUGGUGCGAUAGCGCCAACGUUCUCAACUAUGACACGCAAAACGCGUACUCCGUUGAAUGGAGUUUAUCAUG [C85U G128A], the “polymerase ribozyme fitness (log ratio)” value was -3.29. With GGAUCUUCUCGAUCUAACAAAAAAGACAAAUCUGCCACAAAGCUUGAGAGCAUCUUCGGAUGCAGAGGCGGCAGCCUUCGGUGGCACGAUAGCGCCAACUUUCUCAACUAUGACACGCAAAACGCGUGCUCCGUUGAAUGGAGUUUAUCAUG [G86A G100U] the “polymerase ribozyme fitness (log ratio)” value was at most -4.2. For GGAUCUUCUCGAUCUAACAAAAAAGACAAAUCUGCCACAAAGCUUGAGAGCAUCUUCGGAUGCAGAGGCGGCAGCCUUCGGUGGUGCGAUAUCGCUAACGUUCUCAACUAUGACACGCAAAACGCGUGCUCCGUUGUAUGGAGUUUAUCAUG [C85U G92U C96U A137U], the “polymerase ribozyme fitness (log ratio)” value was at most -4.2. For GGAUCUUCUCGAUCUAACAAAAAAGACAAAUCUGCCACAAAGCUUGAGAGCAUCUUCGGAUGCAGAGGCGGCAGCCUUCGGUGGUGCGAUAGCGCCAACGUUCUCAACUAUGACACACAAAACGCGUGCUCCGUUGAAUGGAGUUUAUCAUG [C85U G117A], the “polymerase ribozyme fitness (log ratio)” value was 0.212. For GGAUCUUCUCGAUCUAACAAAAAAGACAAAUCUGCCACAAAGCUUGAGAGCAUCUUCGGAUGCAGAGGCGGCAGCCUUCGGUGGUGCGAUAGCGCCAACGUUCUCAACUAUGACACGCAAAACGCGUGCUCCGUUGAACGGAGUUUAUCAUG [C85U U139C], the “polymerase ribozyme fitness (log ratio)” value was -3.16. In the case of GGAUCUUCUCGAUCUAACAAAAAAGACAAAUCUGCCACAAAGCUUGAGAGCAUCUUCGGAUGCAGAGGCGGCAGCCUUCGGUGGUGCGAUAGCGCCAACGUUCUCAACUAUGACACGCAAAACGCGUGCUCCGUUGAAGGGAGUUUAUCAUG [C85U U139G], the “polymerase ribozyme fitness (log ratio)” value is reported as -0.28. In the case of GGAUCUUCUCGAUCUAACAAAAAAGACAAAUCUGCCACAAAGCUUGAGAGCAUCUUCGGAUGCAGAGGCGGCAGCCUUCGGUGGCACGAUAGCGCCAACGUUGUCAACUAUGACACGCAAAACGCGUGCUCCGAUGAAUGGAGUUUAUCAUG [G86A C103G U134A], the “polymerase ribozyme fitness (log ratio)” value is reported as at most -4.2. With GGAUCUUCUCGAUCUAACAAAAAAGACAAAUCUGCCACAAAGCUUGAGAGCAUCUUCGGAUGCAGAGGCGGCAGCCUUCGGUGGUGCGAUAGCGCCAACGGUCUCAACUAUGACACGCAAAACGCGUGCUCCGUUGAAUGGAGUUUAUCAUG [C85U U101G] the “polymerase ribozyme fitness (log ratio)” value was -1.15. In the case of GGAUCUUCUCGAUCUAACAAAAAAGACAAAUCUGCCACAAAGCUUGAGAGCAUCUUCGGAUGCAGAGGCGGCAGCCUUCGGUGGCACGUUAGCGCCAACGUUCUCAACUAUGACACGCAAAAUGCGUGCUCCGUUGAAUGGAGUUUAUCAUG [G86A A89U C123U], the “polymerase ribozyme fitness (log ratio)” value is reported as -2.1. In the case of GGAUCUUCUCGAUCUAACAAAAAAGACAAAUCUGCCACAAAGCUUGAGAGCAUCUUCGGAUGCAGAGGCGGCAGCCUUCGGUGGUGCGAUAGCGCCAACGUUCUCAACUAUGACACGCAAAACGCGUGCUCCGUUGAAUGUAGUUUAUCAUG [C85U G141U], the “polymerase ribozyme fitness (log ratio)” value is reported as 1.07. For GGAUCUUCUCGAUCUAACAAAAAAGACAAAUCUGCCACAAAGCUUGAGAGCAUCUUCGGAUGCAGAGGCGGCAGCCUUCGGUGGCACGAUAGCGCCAUCGUUCUCAACUAUGACACGCAAAACGCGUGCUCCGUUGAUUGGAGUAUAUCAUG [G86A A98U A138U U145A], the “polymerase ribozyme fitness (log ratio)” value was at most -4.2. In the case of GGAUCUUCUCGAUCUAACAAAAAAGACAAAUCUGCCACAAAGCUUGAGAGCAUCUUCGGAUGCAGAGGCGGCAGCCUUCGGUGGUGCGAUAGCGCCAACGGUCUAAACGGUGACACGCAAAACGCGUGCUCCGUUGAAUGGAGUUUAUCAUG [C85U U101G C105A U109G A110G], the “polymerase ribozyme fitness (log ratio)” value is reported as -4.19. With GGAUCUUCUCGAUCUAACAAAAAAGACAAAUCUGCCACAAAGCUUGAGAGCAUCUUCGGAUGCAGAGGCGGCAGCCUUCGGUGGUGCGAUAGCCCCAACGUUCUCAACUAUGACACGCAAAACGCGUGCUCCGUUGAAUGGAGUUUAUCAUG [C85U G94C] the “polymerase ribozyme fitness (log ratio)” value was -0.28. With GGAUCUUCUCGAUCUAACAAAAAAGACAAAUCUGCCACAAAGCUUGAGAGCAUCUUCGGAUGCAGAGGCGGCAGCCUUCGGUGGCACGAUAUCGCCAACGUUCUCAGCUAUGACACGCAAAACGCGUGCUCCGUUGAAUGGAGUUUAUCAUG [G86A G92U A107G] the “polymerase ribozyme fitness (log ratio)” value was at most -4.2. For GGAUCUUCUCGAUCUAACAAAAAAGACAAAUCUGCCACAAAGCUUGAGAGCAUCUUCGGAUGCAGAGGCGGCAGCCUUCGGUGGCACGAUAGCGCCAACGUUCUCAACUAUGACACGCAAAGCGCGUGCUCCGUUGAAUGGAGUUUAGCAUG [G86A A122G U148G], the “polymerase ribozyme fitness (log ratio)” value was at most -4.2.
